Assay results published in patent publication US20250186360A1, “LIQUID-LIQUID PHASE SEPARATION (LLPS)-BASED CO[…] SHORT PEPTIDE AND AN ANIONIC POLYMER” (RAMOT AT TEL AVIV UNIVERSITY LTD., priority 2022, published 2025).
Not every detail of the peptide structures is certain; ends, links or a residue may be inferred. Some compounds share one wording; it may come from a single statement. Peptide text beside a SMILES is read from it. * marks the point of attachment. X1 = COc1cc(COC(=O)*)c([N+](=O)[O-])cc1OC

Tests used:
Assay type in all cases: physicochemical
tDNAh = assay: LLPS with anionic polymer tDNAh
[1] = Effect of salt and temperature on LLPS (turbidity, optical microscopy); conditions: for effect of increasing temperature on droplet formation: 20-60 °C; for effect of NaCl on LLPS / droplet formation: NaCl 10-40 mM, with poly-U
tDNAd = assay: LLPS with anionic polymer tDNAd
[2] = Fluorescence recovery after photobleaching (FRAP) of peptide/poly-U droplets
[3] = Nvoc cleavage analysis by HPLC after UV irradiation; conditions: UV irradiation 365 nm for 24 h
[4] = Payload encapsulation and release in individual droplets (confocal, 405 nm irradiation); conditions: for fluorescence of Atto633-labeled tyrosinase in droplets following irradiation: 0.7 μM Atto633-tyrosinase; for fluorescence of Atto647-labeled UTP in droplets following irradiation: 1 μM Atto647-UTP
tDNA[oligoA] = assay: LLPS with anionic polymer tDNA[oligoA]
poly-U RNA = assay: LLPS propensity and phase diagram by turbidity, peptide with poly-U; conditions: for effect of Ala substitution on LLPS propensity (turbidity, droplet formation): 3 mM peptide, poly-U 0.3, 0.5, 1 mg/ml
[5] = Circular dichroism (CD) analysis of peptide in presence of poly-U; conditions: in the presence of poly-U
[6] = Dynamic light scattering (DLS) of droplet size; conditions: constant poly-U 0.3 mg ml^-1, VFP-1 1-3 mM
[7] = all conditions (Tris-HCl ± NaCl ± EDTA, 25 °C or 70 °C)
[8] = irradiation for 18 hours vs unirradiated
[9] = 25 °C, 2 mM peptide, 0.05 mM ssDNA
[10] = 70 °C, 2 mM peptide, 0.05 mM ssDNA
[11] = 1 mg/ml poly-U, Cy3-oligo-A, pH 7.5

COc1cc(COC(=O)NCCCC[C@H](NC(=O)CNC(=O)[C@@H](N)CC(C)C)C(=O)N[C@@H](CO)C(=O)NCC(=O)N[C@@H](CCCNC(=N)N)C(=O)N[C@@H](CC(C)C)C(=O)N2CCC[C@H]2C(=O)NCC(=O)N[C@@H](CCCCN)C(=O)N[C@@H](CO)C(=O)NCC(=O)N[C@@H](CCCNC(=N)N)C(=O)N[C@H](C(=O)O)C(C)C)c([N+](=O)[O-])cc1OC [Nvoc-VFP-1] (H-LGK(X1)SGRLPGKSGRV-OH)
LLPS with tDNAh (tDNAh; [7]): able to form an LLPS-based compartment at all conditions
change in droplet abundance by optical microscopy ([1]; 40 mM NaCl): no change
decrease in sample turbidity ([1]; 40 mM NaCl): 17%
effect of increasing temperature on droplet formation [1]: negligible effect
effect of NaCl on LLPS / droplet formation [1]: minor effect
effect of NaCl on LLPS / droplet formation ([1]; listed as Nvoc-modified peptide): not sensitive to increasing salt concentrations
LLPS with tDNAd (tDNAd; [7]): able to form an LLPS-based compartment at all conditions
increase in total recovery compared with unirradiated compartments ([2]; 6 hours of irradiation): 16%
droplet diffusion (D) ([2]; after irradiation for 18 hours): about 4.2×10^−8 m^2/sec
droplet diffusion (D) ([2]; before irradiation): about 7×10^−9 m^2/sec
decrease in t1/2 [2, 8]: > 6 fold
increase in droplet diffusion [2, 8]: about 6 fold
recovery after photobleaching, unirradiated ([2]; irradiation time point 0): very slow
Nvoc group cleaved from the peptide [3]: ~95%
fusion of neighboring droplets immediately after irradiation [4]: rapid fusion of neighboring droplets was observed
fluorescence of Atto633-labeled tyrosinase in droplets following irradiation [4]: sharp decrease
fluorescence of Atto647-labeled UTP in droplets following irradiation [4]: sharp decrease
LLPS with tDNA[oligoA] (tDNA[oligoA]; [7]): able to form an LLPS-based compartment at all conditions

CC(C)C[C@H](NC(=O)[C@H](CCCNC(=N)N)NC(=O)[C@H](C)NC(=O)[C@H](CO)NC(=O)[C@H](CCCCN)NC(=O)CNC(=O)[C@@H](N)CC(C)C)C(=O)N1CCC[C@H]1C(=O)NCC(=O)N[C@@H](CCCCN)C(=O)N[C@@H](CO)C(=O)NCC(=O)N[C@@H](CCCNC(=N)N)C(=O)N[C@H](C(=O)O)C(C)C [Peptide G5A, LGKSARLPGKSGRV] (H-LGKSARLPGKSGRV-OH)
droplet dynamics compared with VFP-1 [2]: no significant difference

CC(C)C[C@H](NC(=O)[C@H](CCCNC(=N)N)NC(=O)CNC(=O)[C@H](CO)NC(=O)[C@H](C)NC(=O)CNC(=O)[C@@H](N)CC(C)C)C(=O)N1CCC[C@H]1C(=O)NCC(=O)N[C@@H](CCCCN)C(=O)N[C@@H](CO)C(=O)NCC(=O)N[C@@H](CCCNC(=N)N)C(=O)N[C@H](C(=O)O)C(C)C [Peptide K3A, LGASGRLPGKSGRV] (H-LGASGRLPGKSGRV-OH)
effect of Ala substitution on LLPS propensity (turbidity, droplet formation) (poly-U RNA): completely arrested LLPS and droplet formation

CC(C)C[C@H](NC(=O)[C@H](CCCNC(=N)N)NC(=O)CNC(=O)[C@H](CO)NC(=O)[C@H](CCCCN)NC(=O)CNC(=O)[C@@H](N)CC(C)C)C(=O)N1CCC[C@H]1C(=O)NCC(=O)N[C@@H](C)C(=O)N[C@@H](CO)C(=O)NCC(=O)N[C@@H](CCCNC(=N)N)C(=O)N[C@H](C(=O)O)C(C)C [Peptide K10A, LGKSGRLPGASGRV] (H-LGKSGRLPGASGRV-OH)
effect of Ala substitution on LLPS propensity (turbidity, droplet formation) (poly-U RNA): completely arrested LLPS and droplet formation

CC(C)C[C@H](N)C(=O)NCC(=O)N[C@@H](CCCCN)C(=O)N[C@@H](CO)C(=O)NCC(=O)N[C@@H](CCCNC(=N)N)C(=O)N[C@@H](C)C(=O)N1CCC[C@H]1C(=O)NCC(=O)N[C@@H](CCCCN)C(=O)N[C@@H](CO)C(=O)NCC(=O)N[C@@H](CCCNC(=N)N)C(=O)N[C@H](C(=O)O)C(C)C [Peptide L7A, LGKSGRAPGKSGRV] (H-LGKSGRAPGKSGRV-OH)
LLPS with tDNAh (tDNAh; [9]): showed LLPS
LLPS with tDNAh (tDNAh; [10]): showed LLPS
LLPS with tDNAd (tDNAd; [9]): not
LLPS with tDNAd (tDNAd; [10]): showed LLPS
LLPS with tDNA[oligoA] (tDNA[oligoA]; [9]): not
LLPS with tDNA[oligoA] (tDNA[oligoA]; [10]): all anionic polymers except for the partly unordered tDNA[oligoA]

CC(C)C[C@H](NC(=O)[C@H](CCCNC(=N)N)NC(=O)CNC(=O)[C@H](CO)NC(=O)[C@H](CCCCN)NC(=O)CNC(=O)[C@@H](N)CC(C)C)C(=O)N[C@@H](C)C(=O)NCC(=O)N[C@@H](CCCCN)C(=O)N[C@@H](CO)C(=O)NCC(=O)N[C@@H](CCCNC(=N)N)C(=O)N[C@H](C(=O)O)C(C)C [Peptide P8A, LGKSGRLAGKSGRV] (H-LGKSGRLAGKSGRV-OH)
effect of Ala substitution on LLPS propensity (turbidity, droplet formation) (poly-U RNA): increases sample turbidity and droplet diameter

CC(C)C[C@H](NC(=O)[C@H](C)NC(=O)CNC(=O)[C@H](CO)NC(=O)[C@H](CCCCN)NC(=O)CNC(=O)[C@@H](N)CC(C)C)C(=O)N1CCC[C@H]1C(=O)NCC(=O)N[C@@H](CCCCN)C(=O)N[C@@H](CO)C(=O)NCC(=O)N[C@@H](CCCNC(=N)N)C(=O)N[C@H](C(=O)O)C(C)C [Peptide R6A, LGKSGALPGKSGRV] (H-LGKSGALPGKSGRV-OH)
effect of Ala substitution on LLPS propensity (turbidity, droplet formation) (poly-U RNA): completely arrested LLPS and droplet formation

CC(C)C[C@H](NC(=O)[C@H](CCCNC(=N)N)NC(=O)CNC(=O)[C@H](CO)NC(=O)[C@H](CCCCN)NC(=O)CNC(=O)[C@@H](N)CC(C)C)C(=O)N1CCC[C@H]1C(=O)NCC(=O)N[C@@H](CCCCN)C(=O)N[C@@H](CO)C(=O)NCC(=O)N[C@@H](C)C(=O)N[C@H](C(=O)O)C(C)C [Peptide R13A, LGKSGRLPGKSGAV] (H-LGKSGRLPGKSGAV-OH)
effect of Ala substitution on LLPS propensity (turbidity, droplet formation) (poly-U RNA): completely arrested LLPS and droplet formation

CC(C)C[C@H](NC(=O)[C@H](CCCNC(=N)N)NC(=O)CNC(=O)[C@H](CO)NC(=O)[C@H](CCCCN)NC(=O)CNC(=O)[C@@H](N)CC(C)C)C(=O)N1CCC[C@H]1C(=O)NCC(=O)N[C@@H](CCCCN)C(=O)N[C@@H](C)C(=O)NCC(=O)N[C@@H](CCCNC(=N)N)C(=O)N[C@H](C(=O)O)C(C)C [Peptide S11A, LGKSGRLPGKAGRV] (H-LGKSGRLPGKAGRV-OH)
effect of Ala substitution on LLPS propensity (turbidity, droplet formation) (poly-U RNA): milder increase in turbidity

CC(C)C[C@H](NC(=O)[C@H](CCCNC(=N)N)NC(=O)CNC(=O)[C@H](CO)NC(=O)[C@H](CCCCN)NC(=O)CNC(=O)[C@@H](N)CC(C)C)C(=O)N1CCC[C@H]1C(=O)NCC(=O)N[C@@H](CCCCN)C(=O)N[C@@H](CO)C(=O)NCC(=O)N[C@@H](CCCNC(=N)N)C(=O)N[C@@H](C)C(=O)O [Peptide V14A, LGKSGRLPGKSGRA] (H-LGKSGRLPGKSGRA-OH)
increase in t1/2 compared with VFP-1 [2]: > 4 fold
effect of Ala substitution on LLPS propensity (turbidity, droplet formation) (poly-U RNA): milder increase in turbidity

CC(C)C[C@H](NC(=O)[C@H](CCCNC(=N)N)NC(=O)CNC(=O)[C@H](CO)NC(=O)[C@H](CCCCN)NC(=O)CNC(=O)[C@@H](N)CC(C)C)C(=O)N1CCC[C@H]1C(=O)NCC(=O)N[C@@H](CCCCN)C(=O)N[C@@H](CO)C(=O)NCC(=O)N[C@@H](CCCNC(=N)N)C(=O)N[C@H](C(=O)O)C(C)C [VFP-1, LGKSGRLPGKSGRV] (H-LGKSGRLPGKSGRV-OH)
NaCl concentration at which compartment almost completely disintegrated [1]: about 40 mM
NaCl concentration at which compartment started disintegrating [1]: about 10 mM
droplet formation at 40 mM NaCl ([1]; 40 mM NaCl): complete arrest of droplet formation
effect of increasing temperature on droplet formation [1]: negligible effect
effect of NaCl on LLPS / droplet formation [1]: concentration-dependent inhibition
droplet diffusion rate [2, 11]: about 1.5×10^−7 m^2/sec
recovery of fluorescence after photobleaching [2, 11]: 96%
secondary structure by CD [5]: disordered and does not adopt a secondary structure
fusion of neighboring droplets immediately after irradiation [4]: not
fluorescence of Atto633-labeled tyrosinase in droplets following irradiation [4]: not
fluorescence of Atto647-labeled UTP in droplets following irradiation [4]: not
effect of varying VFP-1 concentration on droplet diameter [6]: minor effect
positive to negative charge ratio at which LLPS was obtained (poly-U RNA; 4 positive charges per peptide, ~2940 negative charges per poly-U, pH 7.5): ≥ 2.4
peptide concentration at which some LLPS could be seen (poly-U RNA; with poly-U, pH 7.5, turbidity): 0.5 mM
